{"source": "paper PMC6919601", "about": "“Identification of Plasmodium dipeptidyl aminopeptidase allosteric inhibitors by high throughput screening” (PLoS ONE, 2019)", "note": "Among all 110,000 compounds or so, about 230 (0.21%) showed an effect of 50% or more. The list shows a part of the results.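 Note: 30 min substrate incubation versus DMSO and 10 µM JCP410 controls.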"}
{"biological_target": "DPAP1 (Plasmodium falciparum, UniProt Q8IIJ9)", "sequence (Q8IIJ9 whole entry, looked up)": "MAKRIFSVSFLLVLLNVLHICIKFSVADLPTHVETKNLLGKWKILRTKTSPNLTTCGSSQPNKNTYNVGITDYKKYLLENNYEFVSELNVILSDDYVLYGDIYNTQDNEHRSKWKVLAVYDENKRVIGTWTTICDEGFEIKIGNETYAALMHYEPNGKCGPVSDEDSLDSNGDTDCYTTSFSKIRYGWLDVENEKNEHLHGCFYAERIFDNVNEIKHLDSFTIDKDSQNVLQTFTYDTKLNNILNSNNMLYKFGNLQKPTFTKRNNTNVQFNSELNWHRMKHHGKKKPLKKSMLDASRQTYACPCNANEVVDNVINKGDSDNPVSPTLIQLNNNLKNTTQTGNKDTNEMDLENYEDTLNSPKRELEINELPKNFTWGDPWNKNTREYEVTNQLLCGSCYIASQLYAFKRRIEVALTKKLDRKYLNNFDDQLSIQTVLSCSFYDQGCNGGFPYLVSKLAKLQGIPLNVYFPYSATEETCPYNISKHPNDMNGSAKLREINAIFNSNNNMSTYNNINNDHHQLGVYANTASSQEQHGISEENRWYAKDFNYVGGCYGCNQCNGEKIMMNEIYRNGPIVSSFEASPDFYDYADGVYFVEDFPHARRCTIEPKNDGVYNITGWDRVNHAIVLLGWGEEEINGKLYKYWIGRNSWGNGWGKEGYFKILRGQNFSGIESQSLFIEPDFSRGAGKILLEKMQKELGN", "test": "primary screen, percent inhibition; read by cleavage of a fluorogenic dipeptide substrate; higher = more effect of the substance", "parameters": "species or system P. falciparum D10 trophozoite lysates; single well", "units": {"% Inhibition @ 10 uM": "%"}}
{"smiles": "O=S(=O)(Nc1cc(C(F)(F)F)ccc1Cl)c1cc(Cl)ccc1Cl", "% Inhibition @ 10 uM": -5.32}
{"smiles": "c1ccc(CCNc2ncnc3c2cnn3-c2ccccc2)cc1", "% Inhibition @ 10 uM": 10.6}
{"smiles": "COc1ccc2nc3sc(C(=O)Nc4nc5ccccc5s4)cc3cc2c1", "% Inhibition @ 10 uM": -6.29}
{"smiles": "CC/N=C(/Nc1[nH]nc(C)c1-c1ccccc1F)SC", "% Inhibition @ 10 uM": -2.28}
{"smiles": "O=C(CCC1CCCC1)N1CCN(Cc2ccccc2)CC1", "% Inhibition @ 10 uM": -6.17}
{"smiles": "Cc1csc(C)[n+]1CC(=O)c1ccccc1", "% Inhibition @ 10 uM": -11.1}
{"smiles": "CN1C(=O)CC(C(=O)Nc2ccc(F)cc2)S/C1=N\\c1cccc(C(F)(F)F)c1", "note": "(centres unmarked)", "% Inhibition @ 10 uM": -3.95}
{"smiles": "Cc1cccc(NC(=O)COc2ccc(S(=O)(=O)NC3CCCCC3)cc2)c1", "% Inhibition @ 10 uM": -0.891}
{"smiles": "O=C(CCCn1nc(-c2ccccc2)c2cc(Cl)ccc21)NCCCN1CCCC1=O", "% Inhibition @ 10 uM": 0.291}
{"smiles": "CCOc1cc(C2NC(=O)NC(C)=C2C(=O)Nc2ccc(Br)cc2)ccc1O", "note": "(centres unmarked)", "% Inhibition @ 10 uM": 4.03}
{"smiles": "CC(=O)Nc1cccc(NC(=O)c2ccccc2)c1", "% Inhibition @ 10 uM": 3.35}
{"smiles": "CCOC(=O)C1CCN(Cc2cccc(Cl)c2Cl)CC1", "% Inhibition @ 10 uM": -3.56}
{"smiles": "COc1ccc(-c2nc(CS(=O)CC(=O)N3CCN(Cc4ccccc4)CC3)c(C)o2)cc1OC", "note": "(centres unmarked)", "% Inhibition @ 10 uM": -4.71}
{"smiles": "CC(C)c1ccccc1OCC(=O)Nc1ccc(S(=O)(=O)N2CCc3ccccc32)cc1", "% Inhibition @ 10 uM": -3.26}
{"smiles": "CN(CCc1ccccn1)CC1CC2C=CC1C2", "note": "(centres unmarked)", "% Inhibition @ 10 uM": -1.21}
{"smiles": "COc1cc(CN2CCN(C3C4CC5CC(C4)CC3C5)CC2)cc(OC)c1OC", "note": "(centres unmarked)", "% Inhibition @ 10 uM": -4.7}
{"smiles": "Cc1cc(C)c(S(=O)(=O)N2CCCC2=O)c(C)c1", "% Inhibition @ 10 uM": 2.51}
{"smiles": "COCCCN(C(=O)NCc1noc2ccccc12)C(C)c1ccncc1", "note": "(centres unmarked)", "% Inhibition @ 10 uM": -0.826}
{"smiles": "COC(=O)c1cccc(/C=N/N=C(/N)SC)c1O", "% Inhibition @ 10 uM": 2.8}
{"smiles": "CCCN1CCC(NCc2ccccc2C(F)(F)F)CC1", "% Inhibition @ 10 uM": -3.57}
{"smiles": "Cn1c2ccc([N+](=O)[O-])cc2c2c(O)nccc21", "% Inhibition @ 10 uM": 1.4}
{"smiles": "Nc1nnnn1/N=C/c1ccccc1OCc1ccc(Cl)cc1Cl", "% Inhibition @ 10 uM": 6.11}
{"smiles": "c1ccc2oc(-c3ccc(-c4nc5ccccc5o4)s3)nc2c1", "% Inhibition @ 10 uM": -0.294}
{"smiles": "O=C(c1cc2ccc3cccnc3c2[nH]1)N1CC=C(c2ccccc2)CC1", "% Inhibition @ 10 uM": 0.184}
{"smiles": "CCC(C)NC(=O)C(CC)n1nc(C)c2sc3ccccc3c2c1=O", "note": "(centres unmarked)", "% Inhibition @ 10 uM": -1.81}
{"smiles": "O=C(C1CCC1)N1CCN(c2ccccn2)CC1", "% Inhibition @ 10 uM": -8.67}
{"smiles": "Cc1ccc(NC(=O)[C@@H]2C3C=CC(C3)[C@@H]2C(=O)O)c(C)c1", "note": "(some centres unmarked)", "% Inhibition @ 10 uM": -4.66}
{"smiles": "O=c1[nH]c(=O)n(-c2ccc(Cl)cc2)c2c1C(C(F)(F)F)(C(F)(F)F)NC(c1ccco1)=N2", "% Inhibition @ 10 uM": 1.93}
{"smiles": "Cc1nn(CCCC(=O)NC2CCCC(C)C2C)c(=O)c2cc3sccc3n12", "note": "(centres unmarked)", "% Inhibition @ 10 uM": -3.35}
{"smiles": "O=C(c1ccco1)N1CCN(c2c3c(nc4nncn24)CCC3)CC1", "% Inhibition @ 10 uM": -0.808}
{"smiles": "CCOc1ccc(CN2CCN(c3ccccc3Cl)CC2)cc1", "% Inhibition @ 10 uM": -6.21}
{"smiles": "O=S(=O)(c1ccc(OC(F)(F)F)cc1)N1CCN(c2ncccn2)CC1", "% Inhibition @ 10 uM": 4.83}
{"smiles": "Cc1ccc2nc(O)c3cc(C(=O)N4CC(C)CC(C)C4)sc3c2c1", "note": "(centres unmarked)", "% Inhibition @ 10 uM": -3.94}
{"smiles": "O=C1C(Cl)=C(Nc2ccccc2)C(=O)N1c1ccccc1", "% Inhibition @ 10 uM": 4.75}
{"smiles": "CCCC(=O)Nc1nc2ccc(OCC)cc2s1", "% Inhibition @ 10 uM": 4.64}
{"smiles": "Cc1ccc(S(=O)(=O)N2CCOCCOCC2)cc1", "% Inhibition @ 10 uM": -9.81}
{"smiles": "Cc1ccc(Cn2c(=O)c3ccccc3n3c(CCC(=O)NCc4ccccc4)nnc23)cc1", "% Inhibition @ 10 uM": -0.692}
{"smiles": "Cc1cc(C)c2c(n1)sc1c3c(c(O)nc12)C(c1cccc(Cl)c1)C(C#N)=C(N)O3", "note": "(centres unmarked)", "% Inhibition @ 10 uM": 0.726}
{"smiles": "c1ccc2c(c1)n(CCN1CCOCC1)c1nc(C34CC5CC(CC(C5)C3)C4)cn21", "% Inhibition @ 10 uM": 0.605}
{"smiles": "CCOC(=O)Nc1ccc2c(C)cc(=O)oc2c1", "% Inhibition @ 10 uM": 0.467}
{"smiles": "Cn1c(=O)c2sccc2n2c(CCCC(=O)N3CCOCC3)nnc12", "% Inhibition @ 10 uM": -2.76}
{"smiles": "CCOCCCNC(=O)CCn1nc(-c2ccccc2)ccc1=O", "% Inhibition @ 10 uM": -5.43}
{"smiles": "COCCNC(=O)Cn1ncc2c3ccccc3n(Cc3ccccc3F)c2c1=O", "% Inhibition @ 10 uM": 3.4}
{"smiles": "Cc1onc(-c2ccccc2)c1C(=O)NC(CC(=O)O)c1ccc(OC2CCCC2)cc1", "note": "(centres unmarked)", "% Inhibition @ 10 uM": 1.32}
{"smiles": "Cc1ccc(-c2ccccc2)n1-c1ccc2ncccc2c1", "% Inhibition @ 10 uM": 2.05}
{"smiles": "O=C(O)CC(NC(=O)Cc1ccc(Cl)cc1)c1ccco1", "note": "(centres unmarked)", "% Inhibition @ 10 uM": -1.24}
{"smiles": "COc1ccc(C(=O)Nc2nonc2NC(=O)c2ccc(OC)cc2)cc1", "% Inhibition @ 10 uM": -0.0735}
{"smiles": "Cc1cc(C)c(C(=O)O)[nH]1", "% Inhibition @ 10 uM": 4.35}
{"smiles": "c1ccc(CN2CCOCCN(Cc3ccccc3)CCOCC2)cc1", "% Inhibition @ 10 uM": -0.968}
{"smiles": "Cc1ccc(NC(=O)Cc2ccc(F)cc2)cc1O", "% Inhibition @ 10 uM": 4.31}
